The target in assay [1] is T1, 14-3-3ω in pGBK (two-hybrid bait) (Arabidopsis) (UniProt Q01525).
T1 sequence: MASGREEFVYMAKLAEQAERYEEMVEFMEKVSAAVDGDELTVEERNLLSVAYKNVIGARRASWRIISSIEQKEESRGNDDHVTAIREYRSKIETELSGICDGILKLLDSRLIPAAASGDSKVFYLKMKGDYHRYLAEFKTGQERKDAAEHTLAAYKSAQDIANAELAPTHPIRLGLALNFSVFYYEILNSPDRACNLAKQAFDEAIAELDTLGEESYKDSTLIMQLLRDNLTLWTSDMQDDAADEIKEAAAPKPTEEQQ
Kind of assay: two-hybrid; 14-3-3ω or 14-3-3Φ in pGBK and MAPK pathway components in pGAD co-transformed into Y2H Gold; SD-Leu-Trp-His with 40 μg ml^-1 X-α-gal.

The chains behind the UniProt entries cited, without tags or fusion partners. Where a name states a change or a piece, a line headed by the entry shows the natural chain unless it says otherwise. A line that says so, or that is headed by a name, gives the form on record, which may keep a tag or linker. Residues count along the entry.
UniProt A0MES8: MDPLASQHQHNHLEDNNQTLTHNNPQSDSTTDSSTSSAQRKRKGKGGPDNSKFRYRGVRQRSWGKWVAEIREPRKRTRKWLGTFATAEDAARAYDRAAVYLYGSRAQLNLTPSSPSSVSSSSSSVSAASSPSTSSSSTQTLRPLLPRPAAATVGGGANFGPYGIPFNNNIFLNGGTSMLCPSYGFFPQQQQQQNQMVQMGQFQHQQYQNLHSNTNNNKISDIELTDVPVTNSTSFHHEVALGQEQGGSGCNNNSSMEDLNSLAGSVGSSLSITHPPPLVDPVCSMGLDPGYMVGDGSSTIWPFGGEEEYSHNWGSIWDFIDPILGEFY
ABI4 (amino acids 1–160) fused with the GAL4 DNA-binding domain (BD): residues 1-160 of A0MES8
UniProt Q39026: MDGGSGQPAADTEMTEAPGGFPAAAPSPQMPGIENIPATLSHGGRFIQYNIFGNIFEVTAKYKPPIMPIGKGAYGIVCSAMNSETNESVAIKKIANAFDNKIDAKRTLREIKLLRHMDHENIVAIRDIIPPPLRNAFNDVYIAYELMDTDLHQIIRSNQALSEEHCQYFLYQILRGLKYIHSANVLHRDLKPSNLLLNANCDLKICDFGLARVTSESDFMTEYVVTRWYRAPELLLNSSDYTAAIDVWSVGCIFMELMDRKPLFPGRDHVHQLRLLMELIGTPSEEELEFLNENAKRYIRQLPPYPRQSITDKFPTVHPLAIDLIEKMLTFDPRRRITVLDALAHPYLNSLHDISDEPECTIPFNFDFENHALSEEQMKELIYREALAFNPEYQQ

The target in assay [2] is ABI4 (amino acids 1–160) fused with the GAL4 DNA-binding domain (BD) (Arabidopsis) (UniProt A0MES8). Put plainly: two-hybrid; ABI4 (1-160)-BD and 20 MAPKs-AD co-transformed into Y2H Gold; grown on SD-Leu-Trp, α-galactosidase assay.
The target in a further assay is ABI4-CLuc (Arabidopsis) (UniProt A0MES8). Kind of assay: split reporter; luciferase complementation imaging: ABI4-CLuc and MPK3/MPK6-NLuc co-infiltrated into N. benthamiana leaves.
Assay [3] concerns the target T2, 14-3-3ω-nYFP (Arabidopsis) (UniProt Q01525).
T2 sequence: T1 sequence
Put plainly: split reporter; BiFC: 14-3-3ω-nYFP and cYFP fusions co-transformed into Arabidopsis protoplasts; confocal microscopy 12-18 h after transformation.

No constants are given. Whether binding was seen depends on the method and setting. For some of these results: In cells and extracts the contact can be indirect. Some entries that bind do so weakly or less than the wild type. For some of these results: Tags and fused reporters may be left off the sequences shown.

Regarding “MPK6 fused with the GAL4 activation domain (AD) (from UniProt Q39026 1-395) (enzyme)”, the binding entry in assay [1] and in assay [2] was “binds” throughout.
Regarding “MPK6-NLuc (from UniProt Q39026 1-395) (enzyme)”, in the assay with ABI4-CLuc (Arabidopsis), the binding entry is “binds”.
As for “MPK6-cYFP (from UniProt Q39026 1-395) (enzyme)”, the binding result in assay [3] is reported as “binds”.

These data come from PMC4942575.
